From PubChem BioAssay (NCI)
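96-well plates; 48 h exposure; 5 concentrations. Endpoints by linear interpolation between flanking doses. Not reached: highest tested concentration assigned. GI50 = concentration required for 50% inhibition of growth. TGI: concentration producing complete growth inhibition.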

System: NCI-H322M lung
Assay: NCI-60 cell line screen, 48 h

SMILES | TGI [µM] | GI50
CN(C)C=Nc1nncc2n[nH]nc12 | > 100 | 
S=C(Nc1ccccc1)N1CCn2c1nsc2=Nc1ccccc1 | > 100 | > 100 µM
NC1CCCCC1N.O=S(=O)([O-])CCCN1CCN(CCO)CC1.O=S(=O)([O-])CCCN1CCN(CCO)CC1.[Pt+4] | > 100 | 12 µM
CC1(C)O[C@@H](CP(c2cccc3ccccc23)c2cccc3ccccc23)[C@H](CP(c2cccc3ccccc23)c2cccc3ccccc23)O1 | > 100 | 
CC(=O)Nc1cc2cc(NS(=O)(=O)c3cc(C(F)(F)F)cc(C(F)(F)F)c3)ccc2oc1=O | > 100 | 
N#Cc1ncc(N2C(=O)C3(CCC3)N(c3ccc(OC4CCNCC4)nc3)C2=S)cc1C(F)(F)F | > 100 | 88.7 µM
N#Cc1ccc2c(c1)C(=O)c1c-2n(CCCN=[N+]=[N-])c(=O)c2cc([N+](=O)[O-])ccc12 | > 50 | > 50 µM
CN(CCN(C)C(=O)CCn1ccc(=O)[nH]c1=O)C(=O)CCn1ccc(=O)[nH]c1=O | > 100 | 
O=S1(=O)CC(Br)C(Br)C1 (stereo unspecified) | > 100 | 27.7 µM
C=Cc1cnc([N+](=O)[O-])n1C | > 100 | 
Cc1ccc2c(=O)c(C(=O)N(CCO)CCO)c[nH]c2n1 | > 100 | 
Cc1cccc(O)c(=O)c1 | > 100 | 
Cc1nnc(CC#N)n1NC(=O)CC#N | > 100 | 
O=C(Nc1ccc(-c2ccnc(Nc3ccc(N4CCOCC4)cc3)n2)cc1)C1CCCN1 (stereo unspecified) | 36.3 | 10.6 µM
CC1OC=CC(=O)C1O (stereo unspecified) | > 100 | 
O=c1cccccc1NCCNc1cccccc1=O | > 100 | 
CCC(=O)OC1=CN2C(=NC(c3ccc(N)cc3)=CC2c2cc(OC)c(OC)c(OC)c2)S1 (stereo unspecified) | 12.2 | 3.32 µM

SMILES | TGI [µM] | GI50
COC(=O)C[C@H](CCSC)NC(=O)C[C@H](CCSC)NC(=O)C[C@H](CCSC)NC(=O)OC(C)(C)C | > 100 | 
Cc1nn(-c2ccccn2)c2c1C(SC#N)=C(C=O)CC2 | 28.2 | 
OC(O)(C(F)(F)F)C(F)(F)F | > 100 | 
CN(C)CCNc1c2c(c(NCCN(C)C)c3c(CO)c[nH]c13)C(=O)c1ccccc1C2=O | 5.26 | 1.04 µM
N[C@H](C(=O)O)[C@@H](Cl)CC(=O)O | > 100 | 
O=C(NCc1ccccc1)c1c(O)c2ccccc2[nH]c1=O | > 100 | 
CCOC(=O)c1cc(-c2ccn(C(C)=O)c2)c(-c2cc(C)co2)[nH]1 | > 100 | 
COC1=CC(=O)c2c(cc(COP(=O)(N(C)CCBr)N(C)CCBr)n2C)C1=O | 6.61 | 
O=c1oc2ccccc2c(O)c1Cc1cccc(Cc2c(O)c3ccccc3oc2=O)c1 | > 100 | 
c1ccc(COc2cccc3cccnc23)cc1 | > 100 | 
Cc1cc(O)c2c(c1)C(=O)C(c1c(C)cc3c(c1O)C(=O)C1OC1C3=O)=CC2=O (stereo unspecified) | 28.4 | 
C[C@H]1CCC/C=C/[C@@H]2C[C@H](O)C[C@H]2[C@H](O)[C@@H](SC2OC(CO)C(O)C(O)C2O)CC(=O)O1 (stereo partly specified) | > 100 | 50.5 µM
O=C(Nc1cccc([N+](=O)[O-])c1)c1cc2ccccc2cc1O | 9.36 | 2.48 µM
Cn1c(=O)c2[nH]c(CCC(=O)O)nc2n(C)c1=O | > 100 | 
CN(C)c1ccc(N=C(C#N)c2nc(N)nc(N3CCN(c4ccccc4)CC3)n2)cc1 | > 50 | 23.7 µM
Cc1c(N)nc(C(CC(N)=O)NCC(N)C(N)=O)nc1C(=O)NC(C(=O)NC(C)C(O)C(C)C(=O)NC(C(=O)NCCc1nc(-c2nc(C(=O)NCCCNCCCCN)cs2)cs1)C(C)O)C(OC1OC(CO)C(O)C(O)C1OC1OC(CO)C(O)C(OC(N)=O)C1O)c1cnc[nH]1 (stereo unspecified) | > 10 | 40.2 µg/mL
COc1cc(-c2[o+]c3cc(O)cc(OC4OC(CO)C(O)C(O)C4O)c3cc2OC2OC(CO)C(O)C(O)C2O)cc(OC)c1O (stereo unspecified) | > 100 | 
